Reference: the RNAGym collection of RNA variant scans (doi:10.1093/nar/gkz1192)
The source gives no read counts; variants with many changes may rest on few reads.

B1: CPEB3 Ribozyme (parent)
chain: UAACAGGGGGCCACAGCAGAAGCGUUCACGUCGCAGCCCCUGUCAGAUUCUGGUGAAUCUGCGAAUUCUGCUGUAUAUCUC

Variants of: B1
Assay: self-cleavage, relative activity (ratio to wild type); higher = more cleavage; in vitro, sequencing
Outline: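 CPEB3 self-cleaving ribozyme mutant libraries were made by rounds of error-prone PCR, barcoded, and transcribed in vitro with T7 RNA polymerase for 5 hours at 37°C. Cleavage occurred during transcription and a 15 min DNase I step before EDTA stop. RNAs were reverse transcribed with template switching and Illumina-sequenced, with DNA sequencing mapping barcodes to variants. Relative activity is the variant's cleaved/total read fraction divided by wild type's (minimum 5 reads), averaged across three batches.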
A18C A28G U48C U54C U66C U80C showed a self-cleavage of 0.06.
A18C A28U U60A showed a self-cleavage of 0.16.
For A18C A35G A47G U54C, the self-cleavage was 0.81.
A18C A35G A56G U67C U72C U74A showed a self-cleavage of 0.17.
A18C A35G A64G gave a self-cleavage of 0.56.
A18C A45G A64U U74A gave a self-cleavage of 0.31.
Work on A18C A45G U60A yielded a self-cleavage of 0.13.
Variant A18C A45U U49C U54G U74C has a self-cleavage of 0.04.
For A18C A47G C62U U67C, the self-cleavage was 0.15.
For A18C A57G U67C, the self-cleavage was 0.09.
In the case of A18C A75U U78C, the self-cleavage is reported as 0.28.
Variant A18C C23U A28U U41C A45G has a self-cleavage of 0.17.
Variant A18C C23U A47G has a self-cleavage of 0.18.
For A18C C23U G52A A65U, the self-cleavage was 0.05.
A18C C39A U43C gave a self-cleavage of 0.35.
A18C G22C G70A U80A gave a self-cleavage of 0.05.
A18C G33A A47U U48C U49C C62U showed a self-cleavage of 0.06.
A18C G33C C40A A47G A56U gave a self-cleavage of 0.21.
A18C G36A U80C gave a self-cleavage of 0.16.
A18C G42U A57G U66A showed a self-cleavage of 0.16.
A18C G46U U80A gave a self-cleavage of 0.11.
A18C U25A A47G U58C showed a self-cleavage of 0.25.
Variant A18C U25C A28G C34U C40U U80A has a self-cleavage of 0.06.
In the case of A18C U25C A35G C38U A65G U74C, the self-cleavage is reported as 0.32.
In the case of A18C U25C G53A U54C, the self-cleavage is reported as 0.27.
With A18C U25C U51A G55A A57U the self-cleavage was 0.07.
In the case of A18C U25C U51C, the self-cleavage is reported as 0.19.
For A18C U25G U31A U49A A64U U66C, the self-cleavage was 0.1.
For A18C U26A A35G A45U U76C, the self-cleavage was 0.35.
A18C U26C A56G showed a self-cleavage of 0.03.
Variant A18C U26C A56U A65G U80A has a self-cleavage of 0.13.
A18C U31A G33A U41C U72A gave a self-cleavage of 0.07.
A18C U31C A45G A64U U74C U76A showed a self-cleavage of 0.39.
A18C U31C U41A U49G showed a self-cleavage of 0.08.
In the case of A18C U41A U72A, the self-cleavage is reported as 0.05.
For A18C U49A U54C A75U, the self-cleavage was 0.17.
Work on A18C U49C U54C yielded a self-cleavage of 0.33.
A18C U51C U67C G70C U80C gave a self-cleavage of 0.13.
Variant A18C U60C U67C U80C has a self-cleavage of 0.21.
Work on A18C U67A U72C U78C yielded a self-cleavage of 0.11.
Work on A18C U78C C81U yielded a self-cleavage of 0.5.
With A18G A20C A28C U80C the self-cleavage was 0.05.
Work on A18G A20C U25A U41C U67C yielded a self-cleavage of 0.25.
A18G A20C U41A gave a self-cleavage of 0.35.
A18G A20G A21U U43A C50A gave a self-cleavage of 0.11.
For A18G A20G A28G A35U U41A A45U U67C, the self-cleavage was 0.02.
Work on A18G A20G A45G A56G yielded a self-cleavage of 0.23.
Variant A18G A20G A64G U66C has a self-cleavage of 0.19.
With A18G A20G C29U U78A the self-cleavage was 0.07.
A18G A20G C34G U80C showed a self-cleavage of 0.39.
Work on A18G A20G G24A U41A U51C U60C A65G yielded a self-cleavage of 0.33.
In the case of A18G A20G G33A A65U, the self-cleavage is reported as 0.21.
With A18G A20G G36U U43C A47G U76C the self-cleavage was 0.15.
In the case of A18G A20G U25A U26C C34U A45G U51C, the self-cleavage is reported as 0.15.
A18G A20G U26G U41A U60C showed a self-cleavage of 0.05.
A18G A20G U41C U58C A65U U66C U72A showed a self-cleavage of 0.27.
For A18G A20G U51A U54C A57U, the self-cleavage was 0.43.
Variant A18G A20G U51C has a self-cleavage of 0.25.
In the case of A18G A20U A35G U49A G52A, the self-cleavage is reported as 0.26.
Work on A18G A20U A57G U58A yielded a self-cleavage of 0.09.
A18G A20U C32U U58C gave a self-cleavage of 0.07.
Work on A18G A20U C40U U51C G63U A65G U72C yielded a self-cleavage of 0.06.
A18G A20U C44U A45G U60A U67C gave a self-cleavage of 0.11.
A18G A20U U26A U78C showed a self-cleavage of 0.15.
A18G A20U U26C A28U C29U U31A U49C gave a self-cleavage of 0.05.
A18G A20U U26C C39A showed a self-cleavage of 0.13.
For A18G A20U U74A, the self-cleavage was 0.43.
In the case of A18G A21C U49G, the self-cleavage is reported as 0.11.
For A18G A21G A35G C59A U67C, the self-cleavage was 0.16.
For A18G A21G C23U A28U, the self-cleavage was 0.25.
A18G A21G C29U gave a self-cleavage of 0.12.
A18G A21G C34G U67C showed a self-cleavage of 0.06.
For A18G A21G C40A U41G A47U C62U U76G, the self-cleavage was 0.04.
A18G A21G U25C A28U U51C A56G U67C gave a self-cleavage of 0.02.
With A18G A21G U26A U67A the self-cleavage was 0.37.
Work on A18G A21G U41A G52A yielded a self-cleavage of 0.34.
A18G A21G U49C U74C showed a self-cleavage of 0.42.
In the case of A18G A21G U51G C62U U78C, the self-cleavage is reported as 0.19.
A18G A21U C68A showed a self-cleavage of 0.23.
A18G A21U U66C C71A A75G gave a self-cleavage of 0.13.
Work on A18G A21U U78A yielded a self-cleavage of 0.42.
A18G A28C A35U U41A A45U showed a self-cleavage of 0.13.
With A18G A28C U43C the self-cleavage was 0.27.
